Measured values as given in PubChem BioAssay (NCATS).
Where “and” joins values, the source holds several entries; their conditions need not be identical. Equal values may be shown once. Inconclusive means that the source gave no clear call. Such entries were picked first, then a sample of the others. Entries that show only a call come without a potency. For part of these data: Potencies of inconclusive entries are doubtful fits and often do not repeat. Calls of active or inactive are those of the source. Unless noted, calls follow the shape of the dose curve; as a rule, active = well fitted curve in the direction sought with a large enough effect; inconclusive = small, poorly fitted or top-dose-only effect, or another doubt; inactive = no such curve, though single readings can be large; an effect the other way counts as inactive or inconclusive.

Columns and labels:
[1] = test system: HaCat; test: Cytotoxic Profiling of Annotated Libraries Using Quantitative High-Throughput Screening (AID 1296008); conditions: Five cell lines viability, CellTiter-Glo ATP luminescence, 48-72 h; max response: stronger effect = lower value; also: nearly all actives have a fitted effect of over 60% in size; also: potency is read from the fitted curve at half-maximal effect
Procedure, shortened: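 Compounds were pin-transferred onto cells and incubated 48 or 72 hr at 37 degree Celsius, 95% humidity. CellTiter-Glo was added, plates sat 10 min at room temperature, then ATP-coupled luminescence was imaged as the viability read-out.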

[2] = qHTS of pediatric cancer cell lines to identify multiple opportunities for drug repurposing: Primary screen for NB1643 cells (AID 1347099); conditions: NB1643 neuroblastoma viability, CellTiter-Glo luminescence, 48 h; activity change, negative = cytotoxic: at 46 µM (top of the series); also: nearly all actives have a fitted effect of over 50% in size; also: potency is read from the fitted curve at half-maximal effect
Procedure, shortened: (§1)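 CRCs from 8- or 11-point titrations (lowest final 0.59 nM NPC, 0.78 nM MIPE). Cell viability: CellTiter-Glo after 48 h incubation, 15 min room-temperature development, luminescence imaging.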

[3] = test system: CAOV3; test: Primary qHTS to identify gynecologic anti-cancer compounds using libraries of approved drugs and bioactive compounds (AID 1345084); conditions: Gynecologic cancer cell panel viability, ATPlite luminescence, 48 h; series mostly up to 57.5 µM; also: nearly all actives have a fitted effect of over 55% in size; also: potency is read from the fitted curve at half-maximal effect
Procedure, shortened: (§2)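 ATP-based viability (ATPlite), 1,000 cells/well, 16 h pre-incubation, 48 h compound at 37 C, 5% CO2, 15 min RT before read.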

[4] = P-glycoprotein substrates identified in KB-8-5-11 adenocarcinoma cell line, qHTS therapeutic library screen (AID 1346987); conditions: activity change, negative = cytotoxicity: at 44.5 µM (top of the series); also: nearly all actives have a fitted effect of over 65% in size
Procedure, shortened: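 P-gp-mediated resistance screen: KB-8-5-11 cells treated 72 h with compounds in dose-response. CellTiter-Glo viability.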

[5] = qHTS of pediatric cancer cell lines to identify multiple opportunities for drug repurposing: Primary screen for SJ-GBM2 cells (AID 1347091); also: potency is read from the fitted curve at half-maximal effect
Procedure, shortened: (§3)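 Eight- or eleven-point concentration series, 48 h treatment at 37 degrees C in growth media; readout CellTiter-Glo luminescence. Potency and efficacy were taken from the concentration-response curves.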

[6] = qHTS of pediatric cancer cell lines to identify multiple opportunities for drug repurposing: Primary screen for Rh41 cells (AID 1347108);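 also: luminescence drop marks cytotoxic hits; nearly all actives have a fitted effect of over 70% in size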
Procedure, shortened: as §1

[7] = qHTS of pediatric cancer cell lines to identify multiple opportunities for drug repurposing: Primary screen for BT-37 cells (AID 1347094); also: potency is read from the fitted curve at half-maximal effect
Procedure, shortened: as §1

[8] = qHTS of pediatric cancer cell lines to identify multiple opportunities for drug repurposing: Primary screen for MG 63 (6-TG R) cells (AID 1347105); conditions: MG 63 (6-TG R) viability, CellTiter-Glo, 48 h; activity change, negative = cytotoxic: at 46 µM (top of the series); also: nearly all actives have a fitted effect of over 50% in size; also: potency is read from the fitted curve at half-maximal effect
Procedure, shortened: as §1

[9] = test system: PA-1; test: Primary qHTS to identify gynecologic anti-cancer compounds using libraries of approved drugs and bioactive compounds (AID 1345084); conditions: Gynecologic cancer cell panel viability, ATPlite luminescence, 48 h; series mostly up to 57.5 µM; also: nearly all actives have a fitted effect of over 55% in size; also: potency is read from the fitted curve at half-maximal effect
Procedure, shortened: as §2

[10] = NFAT Signaling Pathway (AID 444; active = well fitted curve in either direction with a large enough effect, not every such curve was filed as active; inconclusive = small, poorly fitted or top-dose-only effect, or another doubt;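 also: carbachol stimulus at about its EC50 of 1 µM final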); conditions: Jurkat NFAT-bla M1, carbachol, beta-lactamase ratio, 5 h
Procedure, shortened: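 Jurkat cells carrying an NFAT-driven β-lactamase reporter and co-transfected muscarinic M1 receptor were treated with compound plus carbachol (1 uM final, an EC50 level) for 5 h at 37 °C. CCF4 loading followed for 1 h at RT; 460/530 nm ratio gave %activity.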

[11] = qHTS of pediatric cancer cell lines to identify multiple opportunities for drug repurposing: Primary screen for Rh18 cells (AID 1347102); also: potency is read from the fitted curve at half-maximal effect; nearly all actives have a fitted effect of over 65% in size
Procedure, shortened: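 Cells (500-1,000/well) in growth media were settled 5 h at 37 degrees C, then given compounds for 48 h. Viability was read as CellTiter-Glo luminescence. Primary runs used MIPE at 11 points (0.78 nM-46 µM) and NPC at 8 points (0.59 nM-46 µM); follow-ups used 11 points.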

[12] = test system: Hek293T; test: Primary qHTS to identify gynecologic anti-cancer compounds using libraries of approved drugs and bioactive compounds (AID 1345084); conditions: Gynecologic cancer cell panel viability, ATPlite luminescence, 48 h, control line for the selectivity index; series mostly up to 57.5 µM; also: nearly all actives have a fitted effect of over 55% in size; also: potency is read from the fitted curve at half-maximal effect
Procedure, shortened: as §2

[13] = test system: OV90; test: as above; conditions: Gynecologic cancer cell panel viability, ATPlite luminescence, 48 h; series mostly up to 57.5 µM
Procedure, shortened: as §2

[14] = test system: Tov-21-G; test: as above; conditions: Gynecologic cancer cell panel viability, ATPlite luminescence, 48 h; series mostly up to 57.5 µM
Procedure, shortened: as §2

[15] = test system: CP260; test: qHTS profiling for inhibitors of Plasmodium falciparum proliferation (AID 504749); also: nearly all actives have a fitted effect of over 60% in size; also: potency is read from the fitted curve at half-maximal effect; conditions: P. falciparum in erythrocytes, SYBR Green DNA, 72 h; series mostly up to 28.7 µM
Procedure, shortened: (§4)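 P. falciparum-infected erythrocytes (0.3% parasitemia, 2.5% hematocrit final) were exposed to compounds for 72 h at 37 C in 5% CO2, then lysed with SYBR Green buffer overnight at room temperature; parasite DNA fluorescence was normalized to artemisinin and DMSO controls.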

[16] = test system: W2; test: as above; conditions: P. falciparum in erythrocytes, SYBR Green DNA, 72 h; activity, negative = inhibition: at 28.7 µM (top of the series)
Procedure, shortened: as §4

[17] = qHTS of pediatric cancer cell lines to identify multiple opportunities for drug repurposing: Primary screen for DAOY cells (AID 1347090); also: nearly all actives have a fitted effect of over 55% in size; also: potency is read from the fitted curve at half-maximal effect
Procedure, shortened: as §3

[18] = test system: ICS; test: qHTS profiling for inhibitors of Plasmodium falciparum proliferation (AID 504749); also: nearly all actives have a fitted effect of over 60% in size; also: potency is read from the fitted curve at half-maximal effect; conditions: P. falciparum in erythrocytes, SYBR Green DNA, 72 h; series mostly up to 28.7 µM
Procedure, shortened: as §4

[19] = molecular target: Cytochrome P450 3A4 (Homo sapiens) (UniProt P08684); test: Cytochrome P450 family 3 subfamily A member 4 (CYP3A4) small molecule antagonists: luciferase qHTS assay (AID 1645841; active = well fitted curve in the direction sought with a large enough effect in the repeat runs; inconclusive = weak or mixed curves; inactive = no such curve, though single readings can be large; an effect the other way counts as inactive or inconclusive; also: nearly all actives have a fitted effect of over 45% in size)
Sequence of UniProt P08684 (P08684 whole entry, looked up): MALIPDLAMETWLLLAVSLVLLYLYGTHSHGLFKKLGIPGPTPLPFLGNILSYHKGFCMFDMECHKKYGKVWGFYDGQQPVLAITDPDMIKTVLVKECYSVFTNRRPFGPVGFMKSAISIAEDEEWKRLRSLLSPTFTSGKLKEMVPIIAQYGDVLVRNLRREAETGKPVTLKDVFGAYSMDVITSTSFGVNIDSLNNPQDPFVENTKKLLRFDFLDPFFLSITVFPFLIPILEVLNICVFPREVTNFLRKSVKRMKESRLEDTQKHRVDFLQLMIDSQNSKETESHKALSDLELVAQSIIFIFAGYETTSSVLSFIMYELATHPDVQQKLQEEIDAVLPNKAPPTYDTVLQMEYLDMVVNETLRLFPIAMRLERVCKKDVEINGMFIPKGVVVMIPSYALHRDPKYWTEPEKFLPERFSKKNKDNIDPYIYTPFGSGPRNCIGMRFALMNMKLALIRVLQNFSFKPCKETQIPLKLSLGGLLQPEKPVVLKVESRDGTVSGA
Procedure, shortened: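 P450-Glo CYP3A4 enzyme with proluciferin substrate was preincubated with DMSO-dissolved compounds for 10 min at room temperature. NADPH regeneration solution started a 1 h reaction. Detection reagent stopped it, and luminescence was read after 20 min.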
Tags tell the direction and shape of the fitted curve.

For `O=C1NC(Cc2c[nH]c3ccccc23)C(=O)NC1Cc1c[nH]c2ccccc12` (stereo not drawn), the Potency [1] was inconclusive: 20.2 µM [inhibitor, single point].

For `COC(=O)N(C)c1c(N)nc(-c2nn(Cc3ccccc3F)c3ncccc23)nc1N`, the Potency [1] was inconclusive: 20.6 µM [inhibitor, single point].

With `CC(C)N(CCCNC(=O)Nc1ccc(C(C)(C)C)cc1)C[C@H]1O[C@@H](n2ccc3c(N)ncnc32)[C@H](O)[C@@H]1O` the outcome [1] was “inactive”.

With `NCCC(O)(P(=O)(O)O)P(=O)(O)O` the Potency [2] was “inactive” and the Potency [3] was “inactive”.

In the case of `CC(C)C[C@H](CC(=O)NO)C(=O)N[C@H](C(=O)N[C@@H](C)C(=O)NCCN)C(C)(C)C`, the Potency [1] is reported as inconclusive: 0.75 µM [inhibitor, partial curve, poor fit].

With `COc1nccnc1NS(=O)(=O)c1ccc(N)cc1` the Potency [4] was “inactive”, the Potency [5] was “inactive” and the Potency [6] was “inactive”.

With `CCOC(=O)OCC/C(SC(=O)OCC)=C(\C)N(C=O)Cc1cnc(C)nc1N` the Potency [7] was “inactive”, the Potency [2] was “inactive” and the Potency [8] was “inactive”. For the same compound, the Potency [3] was “inactive”.

For `O=c1[nH]c(=O)n([C@H]2O[C@H](CO)[C@@H](O)[C@@H]2O)cc1/C=C\Br`, the Potency [9] was “inactive”.

In the case of `CN(C)CCCN1c2ccccc2Sc2ccc(C(F)(F)F)cc21`, the activity change, negative = inhibition ([10]; at 17.2 µM (top of the series)) is reported as inconclusive: -44.7% [inhibitor] and active: -88.2%, the activity change, negative = inhibition ([10]; at 38 µM (top of the series)) is reported as inconclusive: -66.9% [inhibitor] and the Potency [5] is reported as inconclusive: 26.6 µM [cytotoxic, single point]. The Potency [7] was inconclusive: 24.6 µM [cytotoxic, single point], the Potency [2] was inconclusive: 26.6 µM [cytotoxic, single point] and the Potency [11] was inconclusive: 23.7 µM [cytotoxic, single point]. For the same compound, the Potency [6] was “inactive”, the Potency [3] was inconclusive: 35.5 µM [cytotoxic, single point] and the Potency [12] was inconclusive: 39.8 µM [cytotoxic, single point]. For the same compound, the Potency [13] was inconclusive: 12.6 µM [cytotoxic, partial curve, poor fit], the Potency [9] was inconclusive: 25.1 µM [cytotoxic, single point] and the Potency [14] was inconclusive: 39.8 µM [cytotoxic, single point]. For the same compound, the Potency [15] was inconclusive: 17.8 µM [inhibitor, single point] and the Potency [16] was active: 6.75 µM.

With `COc1cc(C(=O)NC2CCCNC2)cc(OC)c1OC` (stereo not drawn) the Potency [6] was “inactive”.

With `CN1CCC(=C2c3ccccc3CCc3cccnc32)CC1` the Potency [14] was inconclusive: 11.2 µM.

With `O=C(CCBr)N1CCN(C(=O)CCBr)CC1` the Potency [4] was “inactive”, the Potency [17] was “inactive” and the Potency [3] was “inactive”. The Potency [15] was “inactive” and the Potency [16] was “inactive”.

In the case of `OC[C@H]1O[C@@H](O[C@@H]2[C@@H](CO)O[C@](O)(CO)[C@H]2O)[C@H](O)[C@@H](O)[C@H]1O`, the Potency [17] is reported as “inactive” and the Potency [8] is reported as “inactive”.

In the case of `CCN(CC)CCOC(=O)C(c1ccccc1)c1ccccc1`, the activity change, negative = inhibition ([10]; at 17.2 µM (top of the series)) is reported as inconclusive: -45.4% [inhibitor] and active: -79.3%, the Potency [2] is reported as “inactive” and the Potency [12] is reported as “inactive”. The Potency [18] was inconclusive: 7.08 µM [inhibitor, partial curve].

For `CCC1C(=O)OCC1Cc1cncn1C` (stereo not drawn), the Potency [4] was “inactive”, the Potency [19] was “inactive” and the Potency [3] was “inactive”.

For `CCOC(=O)/C=C(C)/C=C/C=C(C)/C=C/c1c(C)cc(OC)c(C)c1C`, the Potency [8] was “inactive”, the Potency [15] was inconclusive: 12.6 µM [inhibitor, single point] and the Potency [18] was inconclusive: 15.8 µM [inhibitor, single point]. For the same compound, the Potency [16] was inconclusive: 15.1 µM [inhibitor, single point].

In the case of `CC(C)(C)NCC(O)COc1cccc2c1C[C@H](O)[C@H](O)C2` (stereo partly drawn), the Potency [7] is reported as “inactive” and the Potency [14] is reported as “inactive”.

With `COC(=O)c1cc(Cl)c(NC(C)=O)cc1OC` the Potency [17] was “inactive” and the Potency [7] was “inactive”.

With `COc1ccccc1Oc1c(NS(=O)(=O)c2ccc(C(C)(C)C)cc2)nc(-c2ncccn2)nc1OCCO` the Potency [17] was inconclusive: 33.5 µM [cytotoxic, single point], the Potency [7] was “inactive” and the Potency [6] was “inactive”. The Potency [3] was “inactive”, the Potency [13] was “inactive” and the Potency [18] was inconclusive: 20 µM [inhibitor, single point]. The Potency [16] was inconclusive: 12 µM [inhibitor, partial curve, poor fit].

In the case of `NC(=O)NNc1ccccc1`, the Potency [8] is reported as inconclusive: 0.266 µM [cytotoxic, full curve, poor fit], the Potency [6] is reported as “inactive” and the Potency [3] is reported as inconclusive: 39.8 µM [rising, single point]. The Potency [18] was “inactive”.
